Source: PubChem BioAssay AID624417 (National Center for Advancing Translational Sciences (NCATS), 2012)
The campaign covered roughly 410,000 compounds. About 6,400 (1.6%) were called active. Inconclusive results, whose numbers are uncertain, are shown with a selection of clear calls. Calls come from the whole dose curve; as a rule, active = well fitted inhibition curve with a large enough effect; inconclusive = small, poorly fitted or top-dose-only effect; inactive = no such curve, though single readings can be large or run the other way. Where the call is inconclusive, the potency comes from a doubtful curve fit.

These compounds were tested against Glucagon-like peptide 1 receptor (Homo sapiens) (UniProt P43220) (assay: qHTS of GLP-1 Receptor Inverse Agonists (Inhibition Mode)). Conditions: HEK293 GLP-1R CRE-luciferase, luminescence, 24 h, GLP-1R form is constitutively active; activity change, negative = inhibition: at 38.3 µM (top of the series) unless noted.
Method in brief: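 Luminescence readout: a drop in cAMP-driven luciferase signal flags inverse agonism at a constitutively active GLP-1R stably expressed in HEK293. Compound exposure lasted 24 hr at 37 deg C, 5% CO2.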
% is set by controls: 0 for no effect and ±100 for the full control effect; potency is the fitted concentration of half-maximal effect; tags give direction and shape of the fitted curve.
Note: nearly all actives have a fitted effect of over 55% in size.

Chain of UniProt P43220 (P43220 whole entry, looked up): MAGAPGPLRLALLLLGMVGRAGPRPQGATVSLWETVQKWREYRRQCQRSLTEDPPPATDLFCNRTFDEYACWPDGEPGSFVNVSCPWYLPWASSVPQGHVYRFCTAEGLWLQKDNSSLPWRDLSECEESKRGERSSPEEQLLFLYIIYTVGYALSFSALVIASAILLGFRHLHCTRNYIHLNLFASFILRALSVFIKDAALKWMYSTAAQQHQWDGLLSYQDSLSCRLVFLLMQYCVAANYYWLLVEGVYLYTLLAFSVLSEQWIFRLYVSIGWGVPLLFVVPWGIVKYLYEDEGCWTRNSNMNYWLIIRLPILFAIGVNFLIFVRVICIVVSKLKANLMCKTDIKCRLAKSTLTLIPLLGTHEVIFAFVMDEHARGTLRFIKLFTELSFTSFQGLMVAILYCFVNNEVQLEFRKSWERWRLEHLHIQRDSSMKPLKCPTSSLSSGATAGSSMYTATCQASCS

Potency, inconclusive:
Cc1ccccc1C(=O)OCC(=O)Nc1cccc(S(=O)(=O)N2CCCCC2)c1 28.2 µM [inhibitor, single point]
Cc1ccc(NC(=S)NNc2ncc(C(F)(F)F)cc2Cl)c(C)c1 31.6 µM [inhibitor, single point]
CCOCCN1CCN(c2c(CC)c(C)nc3cc(-c4cc(OC)cc(OC)c4)nn23)CC1 28.2 µM [inhibitor, single point]
COc1cc2nc(N(CCCN(C)C)C(=O)c3ccc(S(=O)(=O)N4CCc5ccccc54)cc3)sc2cc1OC 28.2 µM [inhibitor, single point]
Clc1cccc(Cc2c(-c3ccco3)nc3c4ccccc4ccn23)c1 28.2 µM [inhibitor, single point]
CC(C)OCCCN1C(=O)c2[nH]nc(-c3ccccc3O)c2C1c1ccc(OCc2ccccc2)cc1 (configuration not stated) 11.2 µM [inhibitor, partial curve, poor fit]
CCOC(=O)C1(CC2CCCCO2)CCN(Cc2cc3ccccc3[nH]2)CC1 (configuration not stated) 31.6 µM [inhibitor, partial curve, poor fit]
Cc1ccc(CC(=O)Nc2c(C(=O)N3CCN(c4ccccc4F)CC3)oc3ccccc23)cc1 20 µM [inhibitor, single point]
CN(c1ccccc1)S(=O)(=O)c1ccc(NC(=O)COc2ccccc2)cc1 6.31 µM [inhibitor, partial curve, poor fit]
Cc1onc(-c2ccccc2)c1C(=O)Nc1sc2c(c1C#N)CCC(C)C2 (configuration not stated) 10 µM [inhibitor, partial curve, poor fit]
COc1cccc(Sc2ccccc2CN(C)C)c1 28.2 µM [inhibitor, single point]
CC(C)CCNC(=O)c1ccccc1NC(=O)C1=CSCCO1 10 µM [inhibitor, single point]
CCC(C(=O)Nc1ccc(S(=O)(=O)N(C)C2CCN(C)CC2)cc1)c1ccccc1 (configuration not stated) 10 µM [inhibitor, partial curve, poor fit]
Cc1ccc(NS(=O)(=O)c2ccc3c(c2)NC(=O)CCS3)c(Br)c1 28.2 µM [inhibitor, single point]
O=C(/C=C/c1cccc([N+](=O)[O-])c1)NCCSCc1cccc(Cl)c1 14.1 µM [inhibitor, partial curve, poor fit]
Cc1ccc([C@H]2C[C@H](O)[C@@H](n3cc(COC(=O)c4ccccc4)nn3)CN2Cc2cccs2)cc1 8.91 µM [inhibitor, partial curve, poor fit]
CC(C)(C)C1CCC(=NNC(=S)Nc2cccnc2)CC1 (configuration not stated) 28.2 µM [inhibitor, single point]
NC(c1csc(NC(=O)Nc2cccc(Cl)c2)n1)c1ccccc1Cl (configuration not stated) 10 µM [inhibitor, single point]
O=C(N/N=C/c1ccccn1)c1cc(-c2ccccc2)nc2ccccc12 3.16 µM [inhibitor, full curve, poor fit]
Cc1occc1-c1nnc(SCC(=O)NCCc2ccccc2)n1Cc1ccccc1 14.1 µM [inhibitor, partial curve, poor fit]
COc1ccc(C(=O)NCC(c2cccs2)S(=O)(=O)c2ccc(C)cc2)cc1 (configuration not stated) 28.2 µM [inhibitor, single point]
O=S(=O)(Nc1ccc(-c2ccc(N3CCCC3)nn2)cc1)c1ccc(Br)cc1 28.2 µM [inhibitor, single point]
CC(C)Oc1ccc(F)cc1-c1cc(C(=O)NCc2cccs2)[nH]n1 15.8 µM [inhibitor, single point]
CCOc1cc(/C=C/C(=O)OCC(=O)NCc2ccco2)cc(Cl)c1OC 15.8 µM [inhibitor, single point]
COc1cc(Cl)c(C)cc1NC(=O)CN1c2ccccc2S(=O)(=O)c2ccccc21 17.8 µM [inhibitor, single point]
COc1ccc(CCNC(=O)CCc2cn(C)c3ccccc23)c(OC)c1 8.91 µM [inhibitor, partial curve, poor fit]
Cc1cc(N2CCC(C)CC2)nc2ccc(NC(=O)CCC(=O)N3CCN(c4cccc(C(F)(F)F)c4)CC3)cc12 10 µM [inhibitor, partial curve, poor fit]
COc1cccc(NC(=O)c2cn(C3CCCCC3)c(=O)c3c2c2ccccc2n3C)c1 22.4 µM [inhibitor, single point]
COc1ccc(C(CCN)Cc2ccccc2)cc1 (configuration not stated) 31.6 µM [inhibitor, single point]
CC(NC(=O)Nc1ccc(Br)cc1)C(C)(C)C (configuration not stated) 10 µM [inhibitor, partial curve, poor fit]
C=C1CCN([C@H](C(=O)OCc2ccc(C)cc2)C(C)C)S(=O)(=O)c2ccccc21 28.2 µM [inhibitor, single point]
CC(C)c1ccc(C2(C)NC(=O)N(CC(=O)NC3CCCC(C)C3C)C2=O)cc1 (configuration not stated) 14.1 µM [inhibitor, partial curve, poor fit]
C/C(=N/Nc1nc(C)cc(-c2ccccc2)n1)c1ccco1 10 µM [inhibitor, partial curve, poor fit]

Potency, active:
CN(C)CCCNC(=O)c1ccc(Cl)c(S(=O)(=O)N2CCCCCC2)c1 10 µM

Activity change, negative = inhibition, inactive:
CCOc1ccccc1NC(=O)C(C)Sc1nc2c(c(=O)[nH]1)CCCC2 (configuration not stated) -3.09%
CCCCC1=CC2=C(c3ccco3)C(=O)C(C)(OC(=O)c3ccc(OC)cc3)C(=O)C2=CN1CCOC (configuration not stated) -9.55%
COC(=O)c1sc2nc[nH]c(=O)c2c1C 30.8%
